About 14,000 (4.5%) of roughly 310,000 compounds showed an effect of 50% or more. The effect is printed as a negative number. This is one part of the list.
Molecular target: human ether-à-go-go-related gene (hERG) potassium channel (human, UniProt Q12809)
Experiment: primary screen, population patch clamp on CHO cells stably expressing hERG
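Note: peak tail current of the secondary pulse compared with the same well before compound.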

Chain of human ether-à-go-go-related gene (hERG) potassium channel (Q12809 whole entry, looked up): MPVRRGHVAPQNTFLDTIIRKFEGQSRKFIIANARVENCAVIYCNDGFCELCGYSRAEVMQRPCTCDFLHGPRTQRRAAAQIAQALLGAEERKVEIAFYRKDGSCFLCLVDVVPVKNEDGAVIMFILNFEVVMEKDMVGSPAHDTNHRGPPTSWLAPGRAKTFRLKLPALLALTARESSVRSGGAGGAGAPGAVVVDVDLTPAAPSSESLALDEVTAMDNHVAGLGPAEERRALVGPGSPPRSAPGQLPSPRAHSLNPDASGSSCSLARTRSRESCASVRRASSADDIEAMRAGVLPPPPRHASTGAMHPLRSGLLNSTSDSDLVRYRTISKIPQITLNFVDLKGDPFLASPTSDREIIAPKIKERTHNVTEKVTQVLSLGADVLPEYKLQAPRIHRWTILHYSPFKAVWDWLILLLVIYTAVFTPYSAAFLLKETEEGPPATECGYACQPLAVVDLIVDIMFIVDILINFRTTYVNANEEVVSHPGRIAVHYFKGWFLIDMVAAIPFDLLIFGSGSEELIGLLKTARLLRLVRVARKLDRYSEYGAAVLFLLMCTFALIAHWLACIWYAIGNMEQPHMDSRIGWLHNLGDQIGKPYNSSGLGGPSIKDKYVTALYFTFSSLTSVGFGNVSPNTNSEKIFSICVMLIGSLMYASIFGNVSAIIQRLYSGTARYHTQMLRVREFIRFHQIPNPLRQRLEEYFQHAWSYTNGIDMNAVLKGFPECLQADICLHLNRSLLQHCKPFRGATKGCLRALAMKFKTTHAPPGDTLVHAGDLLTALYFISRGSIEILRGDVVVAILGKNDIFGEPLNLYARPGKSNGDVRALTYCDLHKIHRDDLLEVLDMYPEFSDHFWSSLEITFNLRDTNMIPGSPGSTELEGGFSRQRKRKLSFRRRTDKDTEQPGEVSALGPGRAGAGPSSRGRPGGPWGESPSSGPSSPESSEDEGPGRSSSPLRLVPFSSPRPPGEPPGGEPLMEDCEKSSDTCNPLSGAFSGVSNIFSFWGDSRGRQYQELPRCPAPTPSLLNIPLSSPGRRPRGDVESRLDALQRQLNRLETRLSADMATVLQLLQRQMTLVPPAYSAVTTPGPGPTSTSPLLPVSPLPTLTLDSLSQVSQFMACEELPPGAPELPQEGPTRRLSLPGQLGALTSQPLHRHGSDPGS

Row | Structure (SMILES) | hERG current change (%, negative = inhibition) at 10uM [%]
1 | CC1CCN(Cc2ccc(NC(=O)C3CCN(c4nnc(-n5cccc5)s4)CC3)cc2)CC1 | 1.05
2 | CCOC(=O)C1=C(CNC(C)(C)CC(C)(C)C)NC(=O)NC1c1cccc([N+](=O)[O-])c1 (stereo not shown) | -25.2
3 | CCN(CC)c1ccc(C(=O)OCC(=O)N(C(C)C)C(C)C)cc1 | -3.71
4 | Cc1cccc(NC(=O)CS(=O)(=O)Cc2ccccc2)n1 | 2.58
5 | COc1ccc(C(=O)NCCNC(=O)c2ccc(OC)cc2)cc1 | 9.79
6 | Cc1c(C)c(C)c(CN2CCSCC2)c(C)c1C | 18.4
7 | COCCOc1ccc(C(F)(F)F)cc1NC(=O)CN1C(=O)NC2(CCc3ccccc32)C1=O (stereo not shown) | -9.36
8 | CCOCC(=O)Nc1cc(C(=O)Nc2cccc(C)c2C)ccc1Cl | 8.85
9 | Oc1ccccc1CN1CCCC(N2CCc3ccccc3C2)C1 (stereo not shown) | -38.8
10 | O=C(O)C1CCCCC1C(=O)Nc1ccc(OCc2ccccc2)cc1 (stereo not shown) | 17.6
11 | COCCNC(=O)Cn1cc(/C=C2\C(=O)NC(=O)N(c3cccc(C)c3C)C2=O)c2ccccc21 | 3.61
12 | CCCCn1c(N)c(N(Cc2ccccc2OC)C(=O)c2sccc2C)c(=O)[nH]c1=O | 10.2
13 | CC(C)(C)N(Cc1ccccc1)C(=O)COC(=O)CN1C(=O)C2CC=CCC2C1=O (stereo not shown) | 11.7
14 | O=C(Cc1ccccc1)NC(=S)Nc1ccc2oc(-c3ccccc3F)nc2c1 | -3.17
15 | COc1ccc(Cl)cc1C(=O)Nn1cnc2ccccc2c1=O | -8.82
16 | O=C(CCC(=O)Nc1ccc(F)cc1)N/N=C/c1ccc(F)cc1 | 13.1
17 | Cc1cc(-c2ccccc2)n(-c2ccc(C(N)=O)cc2)n1 | 4.7
18 | Cc1noc(C)c1COc1ccccc1C(=O)NCc1ccccc1Cl | -16.8
19 | COc1ccc(C(=O)NCC(=O)NCC(=O)OCC(=O)c2ccc(Br)cc2)cc1 | 15.3
20 | COc1ccc(NC(=O)CSc2nnc(Cn3cnc4ccccc43)o2)cc1 | 6.83
21 | CC(C)Cn1c(N)c(C(=O)CSc2nc3ccccc3n2C)c(=O)n(C)c1=O | -10.4
22 | CN1CCN(S(=O)(=O)c2cccc([N+](=O)[O-])c2)CC1 | 18.7

Row | Structure (SMILES) | hERG current change (%, negative = inhibition) at 10uM [%]
23 | CN(CC(=O)Nc1ccccc1Br)C(=O)CNC(=O)Cc1cccc2ccccc12 | 26.5
24 | O=C(Cc1ccc(F)cc1)N1CCN=C1SCc1cccc([N+](=O)[O-])c1 | -27.7
25 | CC(C)c1ccc(NC2=NCC(=O)N2Cc2cccs2)cc1.Cl | -4.49
26 | Cc1ccccc1N1CCN(C2CCCN(C(=O)c3ccnn3C)C2)CC1 (stereo not shown) | 0.102
27 | CCCc1nnc2c(N(C)S(=O)(=O)c3ccccc3)nc3ccccc3n12 | 11
28 | COc1ccccc1/C=N/NC(=O)COCC(=O)N/N=C/c1ccccc1OC | 3.56
29 | Cn1c(N)c(C(=O)COC(=O)c2ccc3c(c2)OCCO3)c(=O)n(C)c1=O | 1.14
30 | COc1ccccc1C(=O)NCCC(=O)NC(C)c1ccc(-n2ccnc2)cc1 (stereo not shown) | -17.1
31 | O=C(/C=C/c1ccc(-c2ccc(F)cc2)o1)N1CCCC1 | -5.18
32 | CCOC(=O)N1CCN(Cc2nc3cc(NC(C)=O)ccc3n2C)CC1 | 25
33 | Cc1cc(C)nc(N2CCCC(CCC(=O)NCc3ccc(F)c(F)c3)C2)n1 (stereo not shown) | -1.25
34 | COc1ccc(C(=O)C2CCCN(Cc3ccc(F)cc3F)C2)cc1F (stereo not shown) | -29.8
35 | Nc1[nH]n2c(=O)cc(-c3ccccc3)nc2c1N=Nc1ccc2c(c1)OCO2 | 21
36 | O=C1CCCC2=C1C(c1ccc(OS(=O)(=O)c3ccc(Cl)cc3)cc1)C1=C(CCCC1=O)O2 | -17.4
37 | O=C(/C=C/c1ccco1)Nc1cc(Cl)ccc1C(=O)O | -10.3
38 | CC1(C)CC(=O)C=C(OC(=O)c2ccc(Cl)cc2)C1 | 13.4
39 | CC1(C)CC(=O)C(N=Nc2ccc(-c3ccccc3)cc2)=C(O)C1 | 12.5
40 | CSc1ccc(CNC(=O)C2Cc3cc(S(=O)(=O)N4CCCCC4)ccc3N2C(C)=O)cc1 (stereo not shown) | -57.1
41 | CCc1nc2ccccc2c(C(=O)OCC(=O)NCc2ccco2)c1C | -8.75
42 | CCCCNC(=O)Cn1cnc([N+](=O)[O-])n1 | 10.8
43 | CCOC(=O)c1sc(=NC(=O)CCSc2ccccc2)n(C)c1C | -11.8

Reference: publication PMC4336329 (PLoS ONE, 2015)
